Self-cleavage data for 84 variants are collected here from the RNAGym collection of RNA variant scans (doi:10.7554/elife.90254).

Read counts are not given, so values of variants with three or more changes are uncertain.

The labels stand for the following.
B1: OR4K15 (parent)
chain: GUUAACGGUCAUAGGCCAUGGAAACUAGGAGCACCAUUUCGCUGCCAGUGAAGAAAUGAACAAAGAAAAUCUGGGCCAGGCAGGCAUCAAAAGAAAUAGUCUUGCGCUCAACCAGAAAGUCUGUAAUCAUUUUAAGGGUA

In the series the parent is B1. Briefly: self-cleavage, relative activity (ratio to wild type); higher = more cleavage; in vitro, sequencing; the parent is a self-cleaving ribozyme.
For the variant G1U U19C A47G A63G U72A U87C U103C A110G, the self-cleavage worked out at 0.03.

As for U3A A82G U103C A110G, the self-cleavage was 0.14.

Regarding G1A A51G A54G A116U, the self-cleavage is 0.92.

U3A A62G G74U: the self-cleavage came to 0.14.

Turning to U3C A5G A117U, the self-cleavage is 0.67.

As for U2C A11G A90U A110U, the self-cleavage came to 0.82.

As for U2C A51G A89G, the self-cleavage turned out to be 1.54.

On to U2C A22G A59U A68G, for which the self-cleavage was determined as 0.36.

In the case of U2A G41U A118G, the self-cleavage stood at 0.63.

U2C A4G A30G: the self-cleavage was 0.91.

As for U2C A60G U70C A89G, the self-cleavage was 0.77.

As to U2C A36U A67G A78G A82U, the self-cleavage was 0.07.

Consider U2A A18C U38A A63G, for which the self-cleavage turned out to be 0.7.

For U2C A22U U39A A54G, the self-cleavage came out at 1.45.

With U2A U3A A90G, the self-cleavage is 0.84.

Regarding U2C U19C U70C A117U, the self-cleavage stood at 0.23.

Take U2C U72C A98C A116G: the self-cleavage was determined as 0.24.

As to U2A A18G U102A, the self-cleavage is 0.51.

As for U2C U37C A67U U102C U103C, the self-cleavage is 0.11.

For G1A G58U A68U A69G U103C U130C G138U, the self-cleavage stood at 0.38.

U2C U9A U122A U130C: the self-cleavage came to 1.27.

Turning to U2C A33G A52G U131C, the self-cleavage was found to be 0.57.

Regarding G1A U12C G80A U87A U108C, the self-cleavage amounted to 0.07.

For the variant U2C U37C U124A, the self-cleavage came out at 0.79.

Consider U3C A5G U12C U122C U130C, for which the self-cleavage came to 0.6.

U2C U49A A51G: the self-cleavage stood at 0.52.

Take U2A A22G A64G: the self-cleavage amounted to 0.21.

Consider U2C C16G C71A A86U A116U, for which the self-cleavage is 0.15.

On to U2C U72C A86C, for which the self-cleavage stood at 0.22.

Consider U2C A66C A96G, for which the self-cleavage was 0.84.

Take U2C A78G A125G: the self-cleavage was determined as 0.16.

As for U2C A95U A96G, the self-cleavage amounted to 0.64.

For U2C A33G A62G U70C U87C, the self-cleavage came to 0.33.

U2A A13G A96G: the self-cleavage worked out at 1.4.

Consider U2G G53U U122C, for which the self-cleavage was determined as 0.41.

Turning to U2A G75C A96C U102C U108C U122A U131C, the self-cleavage is 0.

Consider U2C C105U U122A A129G, for which the self-cleavage amounted to 0.06.

Regarding U2A U122A A129G, the self-cleavage is 0.42.

Turning to U2C A52C A66G, the self-cleavage was determined as 1.1.

As to U2C A27G U39C U120C, the self-cleavage was 0.

U2C A24C A59U A82G A118G U131C: the self-cleavage was determined as 0.06.

As for U2C A11G U72A, the self-cleavage was determined as 0.27.

Consider U2C A36U U39C A51G A110G, for which the self-cleavage amounted to 0.19.

As for U2C A78G A89G A91U, the self-cleavage was found to be 0.41.

For U2C U26C A52G A96G, the self-cleavage was found to be 1.01.

Turning to U2C A64G A114U A116U, the self-cleavage amounted to 0.03.

Consider U2A U19C A47G A56G, for which the self-cleavage was 0.94.

As for U2C C35U A68G U87C, the self-cleavage amounted to 0.75.

Consider U2C A30U A62U C85U A117G, for which the self-cleavage was determined as 1.42.

As for U2C A5G U57C A67G A86G A91G A94G, the self-cleavage came out at 0.1.

For U2C A90G A95G, the self-cleavage is 1.31.

With U2A U12A U49A U103C, the self-cleavage was 0.95.

U2C A18G A59G: the self-cleavage came out at 0.41.

As for U2A C40U A55G A94U, the self-cleavage came out at 1.45.

With U2C A24C A54G A117U, the self-cleavage amounted to 0.23.

Turning to U2C A11U U39C A52G A59G A89G, the self-cleavage came to 0.48.

On to G1A U70C U87C, for which the self-cleavage is 1.34.

On to U2C A67G U120C, for which the self-cleavage came out at 1.07.

For the variant U2C U9A A59G A129G, the self-cleavage turned out to be 0.44.

In the case of U2C A30G A118G, the self-cleavage amounted to 1.04.

As for U2C A18U A68G U132A, the self-cleavage was 0.6.

In the case of U2C A68G A82C U120A, the self-cleavage amounted to 0.14.

For the variant U2C U3C C45U U122C, the self-cleavage came to 0.85.

U2A C10U C35U A51G G138A: the self-cleavage came out at 0.5.

Regarding U2C U100C A117G A140G, the self-cleavage was 2.93.

As to G1A A54G G74U A117G, the self-cleavage was 0.3.

Turning to U2C A92U A95G A117G, the self-cleavage was determined as 0.9.

As to U2C A91U U130C, the self-cleavage came to 0.41.

G1A A82U A92G A114U: the self-cleavage stood at 0.08.

U2C U19C A27U U70C G73U U108C G123A: the self-cleavage amounted to 0.06.

Consider U3A G48A A98G, for which the self-cleavage is 0.52.

As for U2C A55G A69G U108C, the self-cleavage stood at 0.05.

In the case of U2C G8A U43G, the self-cleavage was 1.63.

Turning to U2A U100C U132C, the self-cleavage was found to be 1.16.

With U2C A27C A126U, the self-cleavage came out at 0.61.

Take U2C A27U G74A A111C: the self-cleavage came out at 0.02.

For U2C U108C A116G, the self-cleavage was found to be 0.

U2C A69G A89U U108C: the self-cleavage worked out at 0.07.

As for U2C U103C U131C, the self-cleavage is 1.17.

With U2C C35U A36G A68G A90G, the self-cleavage was determined as 0.76.

For U2C A64G U108C C112U, the self-cleavage stood at 0.01.

Consider U2C A24U A52G A78G A98C A114G, for which the self-cleavage worked out at 0.01.

Take U2C G21A G44A A60G A95G A135G: the self-cleavage turned out to be 1.39.

With U2C A62U A64G, the self-cleavage worked out at 1.16.
